# Screen size: about 420,000 compounds; about 64,000 (15%) were called active. Inconclusive means that the source gave no clear call. Such entries were picked first, then a sample of the others. The call rests on the fitted dose curve; in most records, active means well fitted inhibition curve with a large enough effect; inconclusive means small, poorly fitted or top-dose-only effect; inactive means flat fitted curve, though single readings scatter. No potency is given beside an inconclusive call; the fits are too rough.
# Test: qHTS for Inhibitors of human tyrosyl-DNA phosphodiesterase 1 (TDP1): qHTS in cells in absence of CPT; further: nearly all actives have a fitted effect of over 55% in size
# Details: DT40 Tdp1-/- hTDP1 cells, no CPT, ATP luminescence, 48 h; series mostly up to 46.2 µM
# How it was run: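 Chicken DT40 Tdp1-/- cells complemented with human TDP1, screened without camptothecin (DMSO vehicle only), 400 cells/well. Compounds pin-transferred, cells incubated at 37 °C for at least 48 hr. Growth read as ATP-dependent luminescence (CellTiter-Glo, 30 min at RT).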
# Potency means the concentration at half of the fitted maximal effect; tags describe the fitted curve by direction and shape.
row,SMILES,Potency
1,COCC1CCN(Cc2cn(C)nc2-c2cccc(Cl)c2)C1 (stereo not drawn),inactive
2,CCc1cccc(CC)c1NC(=S)NCc1ccc2c(c1)OCO2,active: 18.4 µM
3,Cc1ccc(S(=O)(=O)c2nnn3c2nc(NCc2cccs2)c2sccc23)cc1,inactive
4,Cc1cc(C)c2c(N)c(C(=O)Nc3ccc(C)c(C)c3)sc2n1,"inconclusive [inhibitor, single point]"
5,O=C1C2(c3ccccc3)CN(CCO)CC1(c1ccccc1)CN(CCO)C2,inactive
6,Cc1ccc(C)c(NC(=S)N2CCN(S(=O)(=O)c3ccccc3)CC2)c1,inactive
7,CCc1cnc2c(c1SCC(=O)NCc1ccc(F)cc1)c(=O)n(C)c(=O)n2C,"inconclusive [inhibitor, single point]"
8,CCN(C[C@H]1N[C@@](Cc2ccccc2)(C(=O)OC)[C@H]2C(=O)N(C)C(=O)[C@@H]12)S(=O)(=O)c1ccccc1,"inconclusive [inhibitor, single point]"
9,NC(=O)Cc1ccc(C(=O)c2ccc(Cl)cc2Cl)s1,inactive
10,Cc1cccc(CCN(C(=O)c2csnn2)C(C(=O)NC2CCCC2)c2ccco2)c1 (stereo not drawn),active: 16.4 µM
11,Cc1cc(OCCN2CCCCC2)nc2ccccc12,"inconclusive [inhibitor, full curve]"
12,COc1ccc2nc(-c3ccccc3)cc(C(=O)OCC(=O)N3CC(C)OC(C)C3)c2c1 (stereo not drawn),"inconclusive [inhibitor, single point]"
13,O=C(Cn1nc(-c2ccc(N3CCOCC3)c([N+](=O)[O-])c2)c2ccccc2c1=O)N1CCCCC1,"inconclusive [inhibitor, single point]"
14,O=C(CSc1nc(C2CC2)nc2sc3c(c12)CCCC3)NCc1ccco1,inactive
15,Cc1nn(-c2ccccc2)c2c1C(c1ccc(Br)s1)C(C#N)=C(N)O2 (stereo not drawn),active: 11.6 µM
16,CN(C(=O)c1cccc(NC(=O)Cc2ccc([N+](=O)[O-])cc2)c1)C1CCC1,"inconclusive [inhibitor, single point]"
17,Cc1cccc2cc(CN(CCCO)C(=O)Nc3cccc(Cl)c3)c(=O)[nH]c12,active: 20.6 µM
18,CN(C)c1ccc(N=NS(=O)(=O)O)cc1,active: 24.3 µM
19,Cc1cccc(C(=O)Nc2ccc3nc(SCCOc4ccccc4)sc3c2)c1,"inconclusive [inhibitor, partial curve]"
20,Cc1ncc(CO)c(/C=N/N=C/c2ccccc2O)c1O,inactive
21,COc1cc(C(=O)NCC(=O)N2CC=C(c3ccccc3)CC2)cc(OC)c1OC,"inconclusive [inhibitor, partial curve]"
22,COc1cc(C(=O)NNC(=O)/C=C/c2ccco2)cc(OC)c1OC,inactive
23,COC(=O)c1cc(=O)nc2sc(-c3ccc(F)cc3)nn12,"inconclusive [inhibitor, partial curve]"
24,CCOC(=O)C1(Cc2cccc(OC)c2)CCN(CC=C(C)C)CC1,active: 16.4 µM
25,Cc1ccc(Cn2c(NCCc3ccccc3)nc3c2c(=O)n(C)c(=O)n3C)cc1,active: 8.2 µM

row,SMILES,Potency
1,C[C@H](CO)N1C[C@H](C)[C@@H](CN(C)S(C)(=O)=O)Oc2c(NC(=O)Nc3ccc4c(c3)OCO4)cccc2C1=O,inactive
2,COc1ccc(/C=N/NC(=O)C(=O)N2CCN(c3ccccc3OC)CC2)cc1,"inconclusive [inhibitor, single point]"
3,Cc1ccc(NC(=O)CN2C(=O)NC(Cc3ccccc3)C2=O)cc1Cl (stereo not drawn),"inconclusive [inhibitor, single point]"
4,Cc1ccc(N=Cc2c(O)n(C)c(=O)n(C)c2=O)nc1,inactive
5,C(=C\c1c[nH]c2ccccc12)/c1ccnc2ccccc12,active: 20 µM
6,COc1ccc(C2=NS(=O)(=O)N(C)C(C(=O)Nc3ccc(C)cc3)=C2)cc1,active: 20.6 µM
7,CCCCn1nnnc1C(c1cc2ccccc2o1)N(CCC#N)Cc1ccccc1 (stereo not drawn),"inconclusive [inhibitor, single point]"
8,O=C(Nc1cccc(Cl)c1)N(CCCN1CCOCC1)Cc1ccccc1F,"inconclusive [inhibitor, single point]"
9,CCCCn1cnc2c(=O)[nH]c(N)nc21,inactive
10,CCCCCSc1nc2c(c(=O)[nH]c(=O)n2C)n1C(C)C,"inconclusive [inhibitor, single point]"
11,COc1ccc(C(=O)CSc2nc(C(C)(C)C)nc3ccccc23)cc1,active: 20.6 µM
12,CCOC(=O)CSc1n[nH]c(-c2ccco2)n1,inactive
13,OC(c1cccc(Cl)c1)c1nc(/C=C/c2ccc(C(F)(F)F)cc2)cs1 (stereo not drawn),"inconclusive [inhibitor, single point]"
14,COc1ccc(Cl)cc1NC(=O)Cn1c(=O)c(-c2ccccc2NC(C)=O)nc2ccccc21,active: 14.6 µM
15,COc1ccc(N2CCN(C(c3ccccc3F)c3sc4nc(-c5ccco5)nn4c3O)CC2)cc1 (stereo not drawn),inactive
16,CCOC(=O)c1c(NC(=O)COc2cccc(C)c2C)sc(C(C)=O)c1C,inactive
17,COc1ncc2nc(-c3cn(C)c4ccccc34)c(=O)n(CCc3ccccc3)c2n1,inactive
18,Cc1ccc2cc(CCNC(=O)C3CCCCC3)c(=O)[nH]c2c1C,inactive
19,CN1/C(=C\C(=S)NC(=O)c2ccc([N+](=O)[O-])cc2)C(C)(C)c2ccccc21,active: 23.1 µM
20,Cc1ccc(C)c(Cn2c(C(=O)O)c(CNCc3cccs3)c3ccccc32)c1,"inconclusive [inhibitor, single point]"
21,Cc1ccc(Cn2nnc3c(=O)[nH]c(C4CCN(S(=O)(=O)c5ccc(C)cc5)CC4)nc32)cc1,"inconclusive [inhibitor, single point]"
22,COc1ccccc1N(CC(=O)NCCSc1ccccn1)S(=O)(=O)c1ccccc1,"inconclusive [inhibitor, single point]"
23,Cc1cc(C)c(OCC(=O)Nc2ccc(S(=O)(=O)N3CCCC3)cc2)c(C)c1,"inconclusive [inhibitor, partial curve, poor fit]"
24,Cc1ccc(S(=O)(=O)NCC(=O)OCc2csc(CC(=O)Nc3ccccc3C)n2)cc1C,"inconclusive [inhibitor, full curve, poor fit]"
25,CC1Cc2cc(/C(O)=C3\C(=O)C(=O)N(Cc4cccnc4)C3c3ccccc3F)ccc2O1 (stereo not drawn),inactive

row,SMILES,Potency
1,CC1(C)Cc2c(sc3nc4n(c(=N)c23)CCCCC4)CO1,inactive
2,Cc1ccccc1N1CCN(C(=O)C2CCCCC2)CC1,"inconclusive [inhibitor, partial curve, poor fit]"
3,O=C(/C=C/c1ccco1)c1cccc([N+](=O)[O-])c1,"inconclusive [inhibitor, single point]"
4,Fc1ccc(CSc2nncn2NCc2ccc3c(c2)OCO3)cc1,"inconclusive [inhibitor, single point]"
5,COc1ccc(NC(=O)CN2C(=O)COc3ccc(S(=O)(=O)N4CCCCC4)cc32)cc1OC,"inconclusive [inhibitor, single point]"
6,COc1cccc(CN2CCN(Cc3cccn3-c3cccnc3)CC2CCO)c1 (stereo not drawn),"inconclusive [inhibitor, single point]"
7,COC(=O)c1ccccc1NC(=O)Cn1c(=O)cc(C)c2c(C)nn(C)c21,"inconclusive [inhibitor, single point]"
8,OC(COc1ccc(Cl)cc1)CN1CCCCC1 (stereo not drawn),inactive
9,Cc1cc(C)c2c(c1)c(C)cc1nnc(SCC(=O)c3ccc(F)cc3)n12,"inconclusive [inhibitor, single point]"
10,Cc1cccc2c(=O)[nH]c3c(-c4nc(-c5ccc(Cl)cc5)cs4)c(O)cn3c12,active: 7.08 µM
11,Cc1ccc(C(C(=O)NC2CCCCC2)N(Cc2ccco2)C(=O)C2COc3ccccc3O2)o1 (stereo not drawn),"inconclusive [inhibitor, single point]"
12,Cc1cccc(NC(=O)CSc2nnc(-c3ccco3)c(-c3ccco3)n2)c1C,"inconclusive [inhibitor, single point]"
13,Cc1ccc2cc(C(c3nnnn3Cc3ccccc3)N3CCN(c4ccccc4)CC3)c(=O)[nH]c2c1 (stereo not drawn),"inconclusive [inhibitor, single point]"
14,COc1cccc(C(=O)N(c2ccc(C)cc2)C2C=CS(=O)(=O)C2)c1 (stereo not drawn),inactive
15,O=C(NCc1cccs1)c1cccn2c(=O)c3sccc3nc12,"inconclusive [inhibitor, single point]"
16,Cc1cc(-c2ccccc2)n2nc(-c3ccccc3)cc2n1,"inconclusive [inhibitor, single point]"
17,Cc1ccc(-n2c(O)c(C=Nc3ccc(S(=O)(=O)Nc4ncccn4)cc3)c3ccccc3c2=O)cc1C,"inconclusive [inhibitor, single point]"
18,Cc1sc2nc(COC(=O)c3c(F)cccc3F)[nH]c(=O)c2c1C,"inconclusive [inhibitor, single point]"
19,CC1=Nc2cc(C(=O)NCC3CCCO3)ccc2Sc2ccc(C)cc21 (stereo not drawn),active: 0.92 µM
20,Cc1ccc2c(c1)COc1c3ccc(C(=O)NC(C)C)cc3nn1-2,active: 10.3 µM
21,O=C(NC(NC1CCS(=O)(=O)C1)C(Cl)(Cl)Cl)c1cccc(Cl)c1 (stereo not drawn),inactive
22,COc1ccccc1C(=O)Nc1c(C(=O)Nc2ccccc2F)oc2ccccc12,active: 25.9 µM
23,CC(C)N1CCC(C)(C(=O)Nc2ccc(Cl)c(Cl)c2)C1 (stereo not drawn),"inconclusive [inhibitor, single point]"
